Laboratory results: the supplement of paper PMC12217912
The other results are listed elsewhere or left out. The full chains were built here from the parent and the listed change. Inactive controls read about 0.05.

B1: TEV protease; numbered along this chain (parent)
chain: MGESLFKGPRDYNPISSSICHLTNESDGHTTSLYGIGFGPFIITNKHLFRRNNGTLVVQSLHGVFKVKDTTTLQQHLVDGRDMIIIRMPKDFPPFPQKLKFREPQREERICLVTTNFQTKSMSSMVSDTSCTFPSGDGIFWKHWIQTKDGQCGSPLVSTRDGFIVGIHSASNFTNTNNYFTSVPKNFMELLTNQEAQQWVSGWRLNADSVLWGGHKVFMVKPEEPFQPVKEATQL

Variants of: B1
Test: raw area under fraction-flipped curve 0-4 h after induction (AUC4h, not background-subtracted), DNA-recorder readout of cleavage of the substrate (dimensionless); higher = more cleavage of the substrate by the protease variant
Settings: temperature: 34 °C; time window: 0-4 h after rhamnose induction
Method: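 In vivo DNA recorder in E. coli TOP10(DE3) ΔrhaA at 34 °C. Each TEVp single-site mutant (parent TEVp 0) is paired with a single-site variant of the 7-mer TEVs (canonical ENLYFQ|S). The substrate sits between flexible linkers in a Bxb1-sfGFP-TEVs-SsrA fusion, so cleavage stabilises Bxb1 and speeds flipping of a recombination array, read by NGS. The value is the raw area under the fraction-flipped curve over 0-4 h after rhamnose induction (AUC4h), with ≥20 reads per time point. It is not background-subtracted; inactive controls average about 0.047.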
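Note: Bxb1 expression induced with 0.2% (w/v) L-rhamnose at OD600 near 0.5, cultures sampled hourly, flipped fraction per protease–substrate barcode pair counted by paired-end Illumina sequencing.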

Variant | area with substrate ENLYCQS | area with substrate ENLYDQS | area with substrate ENLYEQS | area with substrate ENLYGQS | area with substrate ENLYHQS | area with substrate ENLYMQS | area with substrate ENLYNQS | area with substrate ENLYPQS | area with substrate ENLYRQS | area with substrate ENLYTQS | area with substrate ENLYVQS | area with substrate ENLYIQS | area with substrate ENLYKQS | area with substrate ENLYLQS | area with substrate ENLYYQS | area with substrate ENLYQQS | area with substrate ENLYSQS | area with substrate ENLYWQS
T192S | 0.0644 | 0.0654 | 0.0772 | 0.0583 | 0.049 | 0.0849 | 0.0601 | 0.132 | 0.0502 | 0.0804 | 0.114 |  |  |  |  |  |  | 
V200F | 0.0726 |  | 0.058 |  |  | 0.0453 |  | 0.0608 | 0.0509 |  | 0.0988 | 0.0753 | 0.0556 | 0.0542 | 0.0647 |  |  | 
V200Y | 0.064 | 0.064 | 0.0561 | 0.0453 | 0.0634 | 0.0519 | 0.0798 |  | 0.066 | 0.0593 | 0.0677 |  | 0.0617 |  |  |  |  | 
G202C | 0.0678 |  | 0.0618 |  |  | 0.0651 |  | 0.0487 |  | 0.0608 | 0.0793 | 0.0885 |  |  |  | 0.0758 | 0.0613 | 0.062
L205V | 0.0638 |  |  |  |  |  | 0.0666 | 0.045 |  |  |  |  |  |  | 0.0704 | 0.0706 |  | 
N206F | 0.0762 | 0.0663 | 0.0585 |  | 0.0579 |  | 0.0585 | 0.0693 |  | 0.0694 | 0.0919 | 0.097 | 0.0439 |  | 0.0536 |  | 0.0688 | 0.0738
D208T | 0.101 | 0.0635 | 0.0626 | 0.0672 | 0.0569 | 0.0721 | 0.0603 | 0.0648 | 0.0884 |  | 0.0892 | 0.0901 | 0.0591 | 0.0651 | 0.063 | 0.06 | 0.0573 | 0.0652
G214S | 0.077 | 0.0591 | 0.072 |  |  |  |  |  |  | 0.0836 |  | 0.0795 | 0.0702 |  |  | 0.0539 |  | 0.0687
H215V | 0.0748 |  | 0.0658 | 0.0459 | 0.0671 | 0.0522 | 0.0392 | 0.0627 |  |  |  |  |  |  |  | 0.0604 | 0.0653 | 
M219A | 0.0711 | 0.0627 | 0.0741 |  | 0.105 | 0.118 |  | 0.0602 | 0.0434 | 0.0424 | 0.0743 | 0.07 | 0.0692 | 0.0217 | 0.061 | 0.0843 | 0.0863 | 
P222W | 0.0589 | 0.0551 | 0.0529 | 0.0712 | 0.0615 |  |  | 0.0681 | 0.0691 | 0.0787 | 0.0888 | 0.0671 | 0.0609 | 0.0348 | 0.0607 | 0.0759 | 0.0548 | 
P228F | 0.0824 | 0.0554 | 0.0699 |  |  | 0.108 |  |  | 0.0638 |  |  |  |  |  | 0.0603 | 0.0567 |  | 0.0674
E231W | 0.1 | 0.0501 | 0.0567 |  | 0.0558 |  | 0.0613 | 0.068 |  |  | 0.105 | 0.103 | 0.0582 |  | 0.0626 | 0.0542 |  | 0.0661
A232E | 0.069 | 0.0619 | 0.0674 | 0.0735 | 0.0605 | 0.0728 |  | 0.0785 |  | 0.103 | 0.119 | 0.122 | 0.0647 | 0.0785 | 0.0709 |  |  | 
A232R | 0.0863 | 0.0694 | 0.0525 | 0.0862 | 0.0659 | 0.0811 | 0.0992 | 0.0947 | 0.0481 | 0.0798 | 0.109 |  | 0.064 | 0.0797 | 0.0522 | 0.0624 |  | 0.0704
E3N |  | 0.0726 |  | 0.0626 |  | 0.0754 | 0.0623 |  |  |  |  |  |  |  |  |  | 0.0878 | 
E3Y |  | 0.056 | 0.0751 |  |  |  |  |  | 0.0559 |  | 0.177 |  | 0.0657 |  |  |  | 0.066 | 
L5M |  | 0.0586 | 0.0702 | 0.0591 | 0.0811 |  | 0.065 | 0.0749 |  | 0.0712 | 0.145 | 0.152 | 0.0945 |  | 0.0759 | 0.0714 | 0.0834 | 
G8N |  | 0.0445 | 0.0553 | 0.0641 | 0.0378 |  | 0.0551 | 0.0709 | 0.062 |  | 0.116 |  |  |  |  |  | 0.0502 | 
Y12A |  | 0.0726 | 0.0691 | 0.061 | 0.066 | 0.084 | 0.0848 | 0.0718 | 0.151 | 0.0616 | 0.141 |  | 0.0783 |  | 0.0821 |  | 0.07 | 
I15N |  | 0.0699 | 0.0547 | 0.0542 | 0.0677 |  | 0.0503 | 0.06 | 0.0681 |  | 0.0752 | 0.132 | 0.055 | 0.0481 | 0.0591 | 0.063 | 0.0534 | 0.0407
S16F |  | 0.059 | 0.0708 |  | 0.0654 | 0.0728 | 0.0723 | 0.0674 | 0.0879 |  | 0.118 | 0.124 | 0.0695 |  | 0.0733 |  | 0.0892 | 0.0997
S18N |  | 0.0209 |  | 0.0609 | 0.068 | 0.0788 | 0.0672 | 0.0727 |  |  | 0.116 |  | 0.0679 |  | 0.0628 | 0.0507 |  | 0.0725
H29F |  | 0.0654 | 0.0511 | 0.0665 | 0.0647 | 0.0841 | 0.0893 | 0.0759 |  | 0.0792 | 0.118 |  | 0.0653 |  |  | 0.0872 |  | 0.0838
F38R |  | 0.0587 | 0.0603 | 0.0526 | 0.0543 | 0.0716 | 0.0611 | 0.0618 | 0.0499 |  |  | 0.0842 | 0.0652 |  | 0.0506 | 0.0604 |  | 0.0533
P40W |  | 0.0586 | 0.0357 | 0.0667 | 0.0616 | 0.0831 |  | 0.0827 |  | 0.0687 | 0.134 | 0.121 | 0.0161 | 0.0997 | 0.0461 | 0.0585 | 0.0809 | 
L56A |  | 0.0308 | 0.0598 | 0.0605 |  | 0.0549 | 0.0486 | 0.0495 |  |  |  |  | 0.0276 |  |  | 0.0564 |  | 0.0714
S60T |  | 0.0512 | 0.0702 |  | 0.0679 | 0.0892 | 0.0727 | 0.0662 |  | 0.0844 | 0.129 |  | 0.0488 |  |  | 0.0608 |  | 
V64D |  | 0.0678 |  |  | 0.0765 | 0.11 |  |  | 0.0533 |  | 0.107 | 0.119 | 0.0552 | 0.0331 | 0.0572 |  |  | 
V64E |  | 0.0604 | 0.0691 | 0.0603 | 0.0671 |  |  | 0.129 |  |  |  |  | 0.0655 |  |  |  | 0.0777 | 0.0834
